Results from the supplement of paper PMC4967469.
By IC50 is meant the dose at which the fit gives 50% viability; a limit (>, <) means that the fit lies beyond the doses tested. For AUC the same curve is integrated over the 256-fold range of doses and scaled to a fraction; the more sensitive the line, the further below 1.

compound: Cn1c(=O)n(-c2ccc(C(C)(C)C#N)cc2)c2c3cc(-c4cnc5ccccc5c4)ccc3ncc21 [NVP-BEZ235]; test: Viability of human cancer cell lines after 72 h of drug (GDSC screen)
Description: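 Human cancer cell lines in 384-well plates, medium with 10% serum, drug for 72 h over a 256-fold dose range (nine 2-fold or five 4-fold steps up to the top dose). Adherent lines were fixed and stained with the nucleic acid dye Syto60, suspension lines read with resazurin; signal relative to control wells, capped at 0 and 100%. One two-parameter sigmoid per drug and line, fitted in a mixed model over all curves with the slope shared within a line.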

Cell Line	AUC	IC50 [nM]
EBC-1 (lung squamous cell carcinoma, adherent, top dose 0.25 µM)	0.633	38.2
NCI-H2110 (non-small cell lung carcinoma, adherent, top dose 0.25 µM)	0.781	107
Ramos-2G6-4C10 (Burkitt lymphoma, suspension, top dose 0.25 µM)	0.355	6.63
NCI-SNU-16 (stomach, suspension, top dose 0.25 µM)	0.901	> 250
Hs939-T (melanoma, adherent, top dose 0.25 µM)	0.731	76.4
A3-KAW (B-cell lymphoma, suspension, top dose 0.25 µM)	0.817	105
UWB1.289 (ovary, adherent, top dose 0.25 µM)	0.801	203
RT4 (bladder, adherent, top dose 0.25 µM)	0.964	> 250
KARPAS-422 (B-cell lymphoma, suspension, top dose 0.25 µM)	0.75	80.9
BHT-101 (thyroid, adherent, top dose 0.25 µM)	0.611	31.9
HCC1500 (breast, adherent, top dose 0.25 µM)	0.705	60.7
OAW-42 (ovary, adherent, top dose 0.25 µM)	0.734	77.3
OCI-LY7 (B-cell lymphoma, suspension, top dose 0.25 µM)	0.453	12.1
5637 (bladder, adherent, top dose 0.25 µM)	0.755	77.8
NCI-H2172 (non-small cell lung carcinoma, adherent, top dose 0.25 µM)	0.831	243
HDQ-P1 (breast, adherent, top dose 0.25 µM)	0.837	217
D-423MG (glioma, adherent, top dose 0.25 µM)	0.687	59
ESS-1 (endometrium, adherent, top dose 0.25 µM)	0.799	106
LU-65 (large cell lung carcinoma, suspension, top dose 0.25 µM)	0.987	> 250
KU-19-19 (bladder, adherent, top dose 0.25 µM)	0.609	
NCI-H524 (small cell lung carcinoma, suspension, top dose 0.25 µM)	0.845	153
IGROV-1 (ovary, adherent, top dose 0.25 µM)	0.776	152
RXF393 (kidney, adherent, top dose 0.25 µM)	0.616	36.8
DU-4475 (breast, suspension, top dose 0.25 µM)	0.692	47.9
CHP-126 (neuroblastoma, suspension, top dose 0.25 µM)	0.685	52.2
HCC1569 (breast, adherent, top dose 0.25 µM)	0.805	180
Ca-Ski (cervix, adherent, top dose 0.25 µM)	0.694	59

Cell Line	AUC	IC50 [nM]
EJM (lymphoid neoplasm, semi-adherent, top dose 0.25 µM)	0.718	57.2
NCI-H1341 (small cell lung carcinoma, suspension, top dose 0.25 µM)	0.67	42.8
LK-2 (lung squamous cell carcinoma, adherent, top dose 0.25 µM)	0.745	74.8
GI-1 (glioma, adherent, top dose 0.25 µM)	0.681	49
RPMI-2650 (head and neck, adherent, top dose 0.25 µM)	0.681	
MDA-MB-330 (breast, adherent, top dose 0.25 µM)	0.651	43.6
SW684 (fibrosarcoma, adherent, top dose 0.25 µM)	0.834	> 250
LC4-1 (lymphoblastic leukaemia, suspension, top dose 0.25 µM)	0.911	> 250
SW626 (ovary, adherent, top dose 0.25 µM)	0.807	158
OCI-LY-19 (B-cell lymphoma, suspension, top dose 0.25 µM)	0.775	91.3
HARA (lung squamous cell carcinoma, adherent, top dose 0.25 µM)	0.75	94.2
IA-LM (large cell lung carcinoma, adherent, top dose 0.25 µM)	0.756	95.2
NCI-H1155 (large cell lung carcinoma, suspension, top dose 0.25 µM)	0.659	39.4
HT-1197 (bladder, adherent, top dose 0.25 µM)	0.838	215
HCC1806 (breast, adherent, top dose 0.25 µM)	0.796	106
NAMALWA (Burkitt lymphoma, suspension, top dose 0.25 µM)	0.645	36.7
MOLT-16 (T-cell lymphoblastic leukaemia, suspension, top dose 0.25 µM)	0.539	19.5
U-266 (myeloma, semi-adherent, top dose 0.25 µM)	0.821	217
NCI-H1975 (lung adenocarcinoma, adherent, top dose 0.25 µM)	0.611	33
ES7 (Ewing sarcoma, adherent, top dose 0.25 µM)	0.539	20
LN-229 (glioma, adherent, top dose 0.25 µM)	0.846	181
MKN28 (stomach, adherent, top dose 0.25 µM)	0.838	174
EW-1 (Ewing sarcoma, semi-adherent, top dose 0.25 µM)	0.776	91.5
CCK-81 (large intestine, adherent, top dose 0.25 µM)	0.933	> 250
JEKO-1 (B-cell lymphoma, suspension, top dose 0.25 µM)	0.548	21
LNZTA3WT4 (glioma, adherent, top dose 0.25 µM)	0.744	76.6
42-MG-BA (glioma, adherent, top dose 0.25 µM)	0.539	20.1

Cell Line	AUC	IC50 [nM]
KYSE-410 (oesophagus, adherent, top dose 0.25 µM)	0.562	23.3
SK-ES-1 (Ewing sarcoma, semi-adherent, top dose 0.25 µM)	0.642	39.6
TCCSUP (bladder, adherent, top dose 0.25 µM)	0.687	56.7
ME-180 (cervix, adherent, top dose 0.25 µM)	0.67	47.4
SK-MEL-3 (melanoma, adherent, top dose 0.25 µM)	0.852	242
RKO (large intestine, adherent, top dose 0.25 µM)	0.641	37.3
LOXIMVI (melanoma, semi-adherent, top dose 0.25 µM)	0.51	16.6
T47D (breast, adherent, top dose 0.25 µM)	0.695	74.9
CFPAC-1 (pancreas, adherent, top dose 0.25 µM)	0.816	165
ES-2 (ovary, adherent, top dose 0.25 µM)	0.618	31.6
D-502MG (glioma, adherent, top dose 0.25 µM)	0.728	102
DOV13 (ovary, adherent, top dose 0.25 µM)	0.551	22
T-T (oesophagus, adherent, top dose 0.25 µM)	0.786	108
CGTH-W-1 (thyroid, adherent, top dose 0.25 µM)	0.508	16.4
SK-MEL-5 (melanoma, adherent, top dose 0.25 µM)	0.727	81.1
H2731 (mesothelioma, adherent, top dose 0.25 µM)	0.803	146
SU-DHL-8 (B-cell lymphoma, suspension, top dose 0.25 µM)	0.837	151
NCI-H1688 (small cell lung carcinoma, adherent, top dose 0.25 µM)	0.854	230
KURAMOCHI (ovary, adherent, top dose 0.25 µM)	0.817	169
786-0 (kidney, adherent, top dose 0.25 µM)	0.611	30.6
TGBC1TKB (biliary tract, adherent, top dose 0.25 µM)	0.566	23.7
NB(TU)1-10 (neuroblastoma, adherent, top dose 0.25 µM)	0.986	> 250
NCI-H2081 (small cell lung carcinoma, suspension, top dose 0.25 µM)	0.921	> 250
LS-180 (large intestine, adherent, top dose 0.25 µM)	0.716	70.5
BICR22 (head and neck, adherent, top dose 0.25 µM)	0.627	36.9
